Laboratory results: the supplement of paper PMC7826260
The list shows a part of the results. Each Rep nickase domain was tested in vitro on the same pool of single strands for 1 h at 37 °C with 3 µM enzyme; only the middle of the 90-letter strands is printed. A value is the log2 ratio of uncut reads to the pool without enzyme; strong cutting gives strongly negative numbers. There is no active / inactive call. The scaling is to total reads, so uncut sequences can rise above 0 when many others are cut.

Tests used:
Assay in all cases: uncleaved DNA left, log2 of reads against the no-enzyme library (log2 ratio); higher = less cleavage (more negative = more Rep cleavage of the k-mer); sequences stand for … in CTCGTCCG…ACCGGAGA
[1] = tested on: T1, Rep nickase domain of Muscovy duck circovirus
T1 sequence (Rep 1-111, printed without the tag): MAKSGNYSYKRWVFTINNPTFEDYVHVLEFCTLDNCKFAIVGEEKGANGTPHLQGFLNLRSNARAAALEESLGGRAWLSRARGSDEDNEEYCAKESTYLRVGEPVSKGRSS
Method: (§1)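 A pool of 90-nt single-stranded DNAs with seven random bases just before the constant AC of the nick site (name = the seven bases) was cut by 3 µM recombinant His6-SUMO-tagged Rep nickase domain (300 nM DNA, 50 mM HEPES pH 8.0, 50 mM NaCl, 1 mM MnCl2, 1 h, 37 °C, three replicates). Uncut DNA was amplified and sequenced.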

[2] = tested on: T2, Rep nickase domain of banana bunchy top virus
T2 sequence (Rep 1-94, printed without the tag): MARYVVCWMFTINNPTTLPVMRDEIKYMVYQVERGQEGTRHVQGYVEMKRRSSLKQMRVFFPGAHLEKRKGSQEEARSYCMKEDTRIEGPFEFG
Method: as §1

[3] = tested on: T3, Rep nickase domain of cabbage leaf curl virus
T3 sequence (Rep 1-116, printed without the tag): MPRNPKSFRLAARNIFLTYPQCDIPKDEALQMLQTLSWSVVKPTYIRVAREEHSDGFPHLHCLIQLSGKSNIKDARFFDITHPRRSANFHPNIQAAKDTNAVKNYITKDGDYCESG
Method: as §1

[4] = tested on: T4, Rep nickase domain of chickpea chlorotic dwarf virus
T4 sequence (Rep 1-124, printed without the tag): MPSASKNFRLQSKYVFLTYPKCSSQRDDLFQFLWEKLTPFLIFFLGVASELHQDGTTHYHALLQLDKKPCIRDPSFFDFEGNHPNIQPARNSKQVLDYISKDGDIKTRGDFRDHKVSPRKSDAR
Method: as §1

[5] = tested on: T5, Rep nickase domain of faba bean necrotic yellows virus
T5 sequence (Rep 1-98, printed without the tag): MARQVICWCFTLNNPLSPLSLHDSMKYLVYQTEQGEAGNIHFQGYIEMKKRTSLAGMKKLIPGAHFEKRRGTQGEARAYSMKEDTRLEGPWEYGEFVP
Method: as §1

[6] = tested on: T6, Rep nickase domain of maize striate mosaic virus
T6 sequence (Rep 1-117, printed without the tag): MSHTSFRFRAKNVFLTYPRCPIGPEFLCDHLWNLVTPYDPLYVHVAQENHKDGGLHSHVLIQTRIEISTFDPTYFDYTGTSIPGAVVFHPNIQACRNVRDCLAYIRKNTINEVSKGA
Method: as §1

[7] = tested on: T7, Rep nickase domain of porcine circovirus 2
T7 sequence (Rep 2-116, printed without the tag): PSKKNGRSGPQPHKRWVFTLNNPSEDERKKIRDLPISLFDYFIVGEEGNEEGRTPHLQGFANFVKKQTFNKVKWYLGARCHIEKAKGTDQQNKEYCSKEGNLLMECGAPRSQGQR
Method: as §1

[8] = tested on: T8, Rep nickase domain of tomato yellow leaf curl virus
T8 sequence (Rep 1-136, printed without the tag): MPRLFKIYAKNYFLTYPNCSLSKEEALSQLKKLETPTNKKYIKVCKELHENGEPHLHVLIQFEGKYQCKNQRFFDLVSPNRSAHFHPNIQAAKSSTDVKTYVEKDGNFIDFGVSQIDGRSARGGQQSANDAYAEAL
Method: as §1

[9] = tested on: T9, Rep nickase domain of wheat dwarf virus
T9 sequence (Rep 1-137, printed without the tag): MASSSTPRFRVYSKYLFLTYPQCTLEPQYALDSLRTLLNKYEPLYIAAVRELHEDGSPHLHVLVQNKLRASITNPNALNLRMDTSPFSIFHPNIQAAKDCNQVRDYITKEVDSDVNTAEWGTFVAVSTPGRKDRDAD
Method: as §1

| Sequence | uncleaved DNA left (log2) [1] | uncleaved DNA left (log2) [2] | uncleaved DNA left (log2) [3] | uncleaved DNA left (log2) [4] | uncleaved DNA left (log2) [5] | uncleaved DNA left (log2) [6] | uncleaved DNA left (log2) [7] | uncleaved DNA left (log2) [8] | uncleaved DNA left (log2) [9] |
| --- | --- | --- | --- | --- | --- | --- | --- | --- | --- |
| GTCTCGC | 0.111 | 0.0815 | 0.201 | 0.732 | -0.032 | 1.61 | 0.21 | 0.0998 | 0.154 |
| CACAGGA | 0.0199 | 0.0348 | 0.225 | 0.454 | 0.0647 | -0.297 | 0.215 | -0.0352 | 0.0883 |
| TGCAAAG | 0.166 | 0.0905 | -0.567 | -0.44 | 0.155 | -1.07 | 0.207 | 0.0464 | 0.135 |
| GAACTTA | -0.083 | 0.023 | 0.225 | -0.467 | -0.179 | 0.948 | -0.029 | -0.0065 | 0.0146 |
| TGCCAGT | -0.0254 | 0.122 | -0.171 | -0.573 | 0.115 | -0.731 | -0.146 | 0.103 | -0.000743 |
| TGACGCT | -0.0356 | -0.163 | -0.228 | -1.38 | -0.14 | -0.51 | -0.195 | -0.115 | -0.224 |
| GCTGATA | 0.151 | 0.138 | 0.08 | 0.267 | 0.139 | 0.95 | 0.126 | 0.21 | 0.103 |
| GCTGCCT | -0.0172 | -0.0892 | -0.0161 | -0.0859 | -0.0602 | 0.427 | -0.13 | -0.033 | -0.0457 |
